The list shows a part of the results. Sequences were assembled here from the parent chain. Inactive controls read about 0.05.
B1: TEV protease; numbered along this chain (parent)
chain: MGESLFKGPRDYNPISSSICHLTNESDGHTTSLYGIGFGPFIITNKHLFRRNNGTLVVQSLHGVFKVKDTTTLQQHLVDGRDMIIIRMPKDFPPFPQKLKFREPQREERICLVTTNFQTKSMSSMVSDTSCTFPSGDGIFWKHWIQTKDGQCGSPLVSTRDGFIVGIHSASNFTNTNNYFTSVPKNFMELLTNQEAQQWVSGWRLNADSVLWGGHKVFMVKPEEPFQPVKEATQL

Variants of: B1
Experiment: raw area under fraction-flipped curve 0-4 h after induction (AUC4h, not background-subtracted), DNA-recorder readout of cleavage of the substrate (dimensionless); higher = more cleavage of the substrate by the protease variant
Details: temperature: 34 °C; time window: 0-4 h after rhamnose induction
Protocol: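 In vivo DNA recorder in E. coli TOP10(DE3) ΔrhaA at 34 °C. Each TEVp single-site mutant (parent TEVp 0) is paired with a single-site variant of the 7-mer TEVs (canonical ENLYFQ|S). The substrate sits between flexible linkers in a Bxb1-sfGFP-TEVs-SsrA fusion, so cleavage stabilises Bxb1 and speeds flipping of a recombination array, read by NGS. The value is the raw area under the fraction-flipped curve over 0-4 h after rhamnose induction (AUC4h), with ≥20 reads per time point. It is not background-subtracted; inactive controls average about 0.047.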
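Note: Bxb1 expression induced with 0.2% (w/v) L-rhamnose at OD600 near 0.5, cultures sampled hourly, flipped fraction per protease–substrate barcode pair counted by paired-end Illumina sequencing.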

| Variant | area with substrate ENLYFQA | area with substrate ENLYFQC | area with substrate ENLYFQD | area with substrate ENLYFQF | area with substrate ENLYFQI | area with substrate ENLYFQK | area with substrate ENLYFQL | area with substrate ENLYFQM | area with substrate ENLYFQQ | area with substrate ENLYFQR | area with substrate ENLYFQS | area with substrate ENLYFQV | area with substrate ENLYFQW | area with substrate ENLYFQY | area with substrate ENLYFQG | area with substrate ENLYFQN | area with substrate ENLYFQP | area with substrate ENLYFQT | area with substrate ENLYFQH | area with substrate ENLYFQE |
| --- | --- | --- | --- | --- | --- | --- | --- | --- | --- | --- | --- | --- | --- | --- | --- | --- | --- | --- | --- | --- |
| M219P | 0.0756 | 0.0999 | 0.0627 | 0.0473 | 0.0636 | 0.0569 | 0.0588 | 0.0665 | 0.0292 | 0.0529 | 0.0796 | 0.052 | 0.0544 | 0.0661 | – | – | – | – | – | – |
| M219H | 0.0831 | 0.0949 | 0.0678 | 0.0433 | 0.0569 | 0.0653 | 0.0685 | 0.0821 | – | 0.0598 | 0.0997 | – | 0.0489 | 0.0627 | 0.0905 | 0.0643 | 0.0569 | 0.0504 | – | – |
| L211K | 0.0897 | – | – | 0.0508 | – | 0.0667 | 0.0807 | 0.104 | 0.0753 | – | 0.094 | – | 0.0671 | 0.0699 | – | 0.0659 | 0.0665 | 0.072 | 0.0658 | – |
| D27Y | – | 0.127 | 0.0699 | 0.0863 | 0.0603 | 0.0571 | – | 0.0808 | 0.0627 | 0.052 | 0.089 | 0.0511 | 0.0635 | 0.0693 | 0.0885 | 0.0649 | – | 0.0578 | 0.0636 | 0.0539 |
| F41C | – | 0.101 | 0.0548 | – | 0.0628 | 0.0589 | – | 0.17 | – | 0.0636 | 0.0983 | 0.0605 | 0.0694 | 0.0724 | 0.0862 | 0.0914 | 0.054 | 0.0631 | 0.0977 | – |
| L235A | 0.0835 | 0.112 | 0.066 | 0.0787 | 0.0645 | 0.0571 | 0.0638 | 0.0799 | – | 0.062 | 0.104 | 0.0444 | – | 0.0629 | 0.121 | 0.0725 | – | 0.0511 | – | – |
| L235G | 0.0853 | – | – | 0.0785 | 0.0448 | 0.0699 | 0.0835 | 0.0946 | – | – | 0.108 | – | – | 0.0801 | – | – | – | – | – | – |
| L235S | 0.111 | – | – | – | 0.0517 | – | 0.05 | 0.106 | – | 0.0635 | 0.107 | 0.0698 | 0.0841 | – | 0.102 | – | 0.0592 | 0.051 | – | – |
| F218A | 0.093 | 0.0952 | – | 0.0698 | 0.0431 | – | 0.065 | 0.0698 | – | 0.0625 | 0.0974 | 0.0594 | 0.0501 | 0.073 | 0.0771 | 0.0798 | – | – | – | – |
| F218K | 0.0733 | 0.0556 | – | – | – | 0.0605 | – | 0.0771 | – | – | 0.0704 | – | 0.0702 | – | 0.0979 | 0.0668 | – | 0.0646 | – | – |
| G214Q | 0.0944 | – | – | – | – | – | – | – | – | – | 0.0871 | 0.0689 | 0.0571 | – | 0.0705 | – | – | – | – | – |
| L33C | – | 0.122 | 0.0732 | – | 0.0609 | 0.0474 | 0.0563 | – | – | 0.0566 | 0.111 | 0.0655 | – | – | 0.115 | – | – | 0.0798 | 0.0726 | 0.0577 |
| Q227Y | 0.0849 | 0.107 | – | – | – | 0.083 | 0.0643 | 0.0791 | 0.0917 | 0.0543 | 0.0888 | 0.0534 | 0.0548 | – | – | 0.0642 | 0.0589 | 0.0717 | – | 0.051 |
| Q227G | 0.121 | – | 0.0651 | – | – | 0.0589 | 0.067 | 0.0821 | – | – | 0.112 | – | 0.0673 | 0.0705 | – | – | 0.0569 | – | – | – |
| Q227F | 0.0926 | 0.0874 | – | 0.0891 | – | 0.0726 | – | – | 0.0638 | 0.0546 | 0.0995 | – | – | 0.064 | 0.109 | 0.0823 | – | – | 0.0739 | – |
| F49S | – | 0.0471 | – | 0.0497 | 0.0467 | 0.062 | 0.0459 | 0.0538 | – | 0.0532 | 0.0604 | – | 0.047 | – | 0.0626 | – | – | 0.0567 | 0.0424 | – |
| I15V | – | 0.105 | 0.0696 | – | 0.0612 | 0.0657 | 0.0665 | 0.0831 | – | 0.0603 | 0.103 | 0.0567 | 0.0595 | 0.0876 | 0.0964 | 0.0586 | 0.0456 | 0.0684 | 0.0851 | – |
| Q234D | 0.113 | 0.146 | 0.0693 | – | 0.0535 | 0.0766 | 0.0623 | – | – | – | 0.114 | 0.0603 | 0.0668 | 0.114 | 0.105 | 0.0909 | 0.0695 | 0.0673 | – | – |
| Q234C | 0.0893 | 0.0905 | 0.0703 | 0.0775 | – | 0.0721 | 0.0589 | – | 0.0738 | 0.039 | 0.0978 | 0.0728 | 0.0712 | 0.0979 | 0.0864 | 0.0802 | – | 0.0691 | – | 0.0706 |
| A207D | 0.1 | – | – | 0.0745 | 0.0603 | 0.0593 | 0.0631 | – | – | 0.0486 | 0.112 | 0.0418 | 0.0949 | 0.0724 | 0.0892 | 0.0854 | 0.0558 | 0.0638 | 0.0732 | – |
| E231P | 0.112 | – | 0.0656 | – | – | – | – | 0.0793 | 0.0579 | – | 0.107 | – | – | – | 0.095 | 0.0695 | – | 0.0639 | 0.0823 | – |
| E231L | 0.0744 | – | 0.0781 | – | – | 0.0861 | 0.0687 | 0.0855 | – | 0.0531 | 0.0924 | 0.0624 | – | – | 0.0781 | – | – | 0.0683 | – | – |
| E231R | 0.117 | – | 0.0706 | 0.0858 | 0.0591 | 0.0882 | 0.0596 | 0.0885 | – | 0.0534 | 0.108 | – | – | 0.0697 | – | – | 0.0876 | – | 0.0518 | – |
| K7I | – | 0.0716 | 0.0583 | – | 0.0614 | 0.0996 | – | 0.0684 | 0.0695 | 0.058 | 0.0701 | – | 0.0538 | – | – | – | – | 0.0627 | – | – |
| K7P | – | 0.0829 | – | – | – | 0.0663 | – | 0.0516 | – | – | 0.0946 | – | – | – | 0.088 | 0.0894 | 0.0896 | – | 0.069 | 0.0681 |
| S26M | – | 0.0873 | 0.0624 | 0.0717 | 0.0507 | – | – | 0.0815 | – | 0.057 | 0.0767 | 0.0577 | 0.0556 | 0.0859 | 0.149 | 0.0663 | 0.0658 | 0.0657 | – | 0.0602 |
| V220L | 0.0855 | 0.126 | 0.0419 | – | 0.0688 | 0.0688 | 0.0624 | 0.0621 | – | 0.0598 | 0.0939 | 0.0614 | 0.0687 | 0.0766 | – | 0.0907 | 0.0629 | 0.0611 | 0.0491 | – |
| V220Y | 0.102 | 0.11 | – | – | 0.0542 | 0.0635 | 0.0701 | 0.0857 | – | 0.0673 | 0.101 | – | 0.0591 | – | 0.11 | 0.0518 | 0.0594 | – | 0.07 | – |

From the supplement of paper PMC12217912
